66 molecules from article PMC6919601, “Identification of Plasmodium dipeptidyl aminopeptidase allosteric inhibitors by high throughput screening” (PLoS ONE, 2019) can be followed below.

The campaign covered roughly 110,000 compounds. About 230 (0.21%) showed an effect of 50% or more. Some of the results follow.
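Note: 30 min substrate incubation versus DMSO and 10 µM JCP410 controls.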

Chain of DPAP1 (Q8IIJ9 whole entry, looked up): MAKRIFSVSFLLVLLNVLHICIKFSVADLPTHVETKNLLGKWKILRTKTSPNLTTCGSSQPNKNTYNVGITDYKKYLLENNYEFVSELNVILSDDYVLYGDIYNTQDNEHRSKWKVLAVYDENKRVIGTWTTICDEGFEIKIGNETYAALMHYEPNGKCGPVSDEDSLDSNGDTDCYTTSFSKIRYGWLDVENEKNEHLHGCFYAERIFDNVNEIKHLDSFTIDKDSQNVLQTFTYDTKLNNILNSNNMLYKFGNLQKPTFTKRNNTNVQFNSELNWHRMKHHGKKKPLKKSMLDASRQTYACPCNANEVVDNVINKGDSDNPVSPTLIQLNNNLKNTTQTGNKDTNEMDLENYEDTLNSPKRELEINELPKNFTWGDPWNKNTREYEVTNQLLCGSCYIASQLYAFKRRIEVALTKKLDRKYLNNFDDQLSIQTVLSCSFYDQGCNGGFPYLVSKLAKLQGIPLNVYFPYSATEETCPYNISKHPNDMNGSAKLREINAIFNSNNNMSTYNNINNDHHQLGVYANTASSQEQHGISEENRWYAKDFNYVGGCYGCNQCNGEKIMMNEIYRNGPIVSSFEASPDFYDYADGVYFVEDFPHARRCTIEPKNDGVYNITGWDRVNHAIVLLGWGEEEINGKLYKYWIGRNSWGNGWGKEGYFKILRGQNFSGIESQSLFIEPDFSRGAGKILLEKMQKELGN

The assay addresses DPAP1 (Plasmodium falciparum, UniProt Q8IIJ9). Put plainly: primary screen, percent inhibition; read by cleavage of a fluorogenic dipeptide substrate; higher = more effect of the substance. More on the design: species or system P. falciparum D10 trophozoite lysates; single well.
Regarding `Cc1nc2c(C)cccc2c(O)c1CN(C)C`, the “% Inhibition @ 10 uM” value came to 1.64%.
In the case of `C=CCN1CCOC(c2cccc(C(F)(F)F)c2)C1` (stereo not drawn), the “% Inhibition @ 10 uM” value was -4.48%.
The value for `O=C(NCc1ccco1)c1ccc(-c2ccccc2)cc1` was 12.6%.
The value for `O=C(Cc1ccccc1)NC1CCCCC1NC(=O)Cc1ccccc1` (stereo not drawn) was -3.59%; that for `Nc1nc(-c2ccccc2)cc(-c2ccccc2O)n1` was 0.829%.
The result for `COCCNC(=O)C1CCCN(S(=O)(=O)c2cccc3nsnc23)C1` (stereo not drawn) reads -8.63%.
`COCCN(CCOC)C(=O)c1sc2nc(-c3ccccc3)cn2c1C`: the “% Inhibition @ 10 uM” value is given as -5.58%.
The result for `CCOc1nc(Nc2ccccc2)nc(Nc2ccccc2)n1` reads 6.4%; that for `CCCCC12CN3CC(C)(CN(C1)C3c1cccc(C)c1)C2=O` (stereo not drawn), -5.33%.
For the molecule `COCC(C)NC(C)Cc1ccccc1OC` (stereo not drawn), the “% Inhibition @ 10 uM” value is -1.81%.
The result for `O=C(O)c1cccc(NC(=O)c2ccc(-c3ccccc3)cc2)c1` reads 3.9%.
The value for `CC1=C(C(=O)Nc2ccc(C)cc2)C(c2ccc(F)cc2)NC(=O)N1` (stereo not drawn) was -3.01%; that for `O=C(Nc1cc(Cl)ccc1C(=O)O)c1ccc(CN2C(=O)c3ccccc3C2=O)cc1` was -0.68%.
On to `Cc1nn(CCCC(=O)O)c(=O)c2cc3sccc3n12`, for which the “% Inhibition @ 10 uM” value stood at 7.75%.
Take `CNC(=O)CN(c1ccc(OC)cc1OC)S(=O)(=O)c1ccc(C)cc1`: the “% Inhibition @ 10 uM” value came to 3.17%.
With `CCOC(=O)C1=C(C)N(C2CCCCC2)C(=O)C1`, the “% Inhibition @ 10 uM” value is -1.32%.
For `CCOC(=O)C1CCN(Cc2sccc2C)CC1`, the “% Inhibition @ 10 uM” value is recorded as -0.127%.
The result for `Nc1nc2sc3c(c2c(C(F)(F)F)c1C(=O)NC12CC4CC(CC(C4)C1)C2)CCC3` reads 6.31%; that for `CN1C(N)=NC(=O)/C1=C/c1cc(O)ccc1Br`, 4.18%; that for `FC(F)(F)c1nn2cc(-c3ccccc3)nc2s1`, 6.06%.
Consider `Cc1ccccc1NC(=O)CN1C(=O)S/C(=C/c2ccccc2)C1=O`, for which the “% Inhibition @ 10 uM” value was -3.25%.
On to `O=C(O)c1cnc2cc(N3CCCCCC3)c(F)cc2c1O`, for which the “% Inhibition @ 10 uM” value is on record as 3.65%.
The value for `CN1CCN(CCCNC(=O)c2ccc(CS(=O)(=O)Cc3ccc(Cl)cc3)o2)CC1` was 2.05%; that for `COc1ccccc1N1CCN(C(=O)c2cccnc2Cl)CC1` was -0.622%.
The result for `COc1ccc(-c2nnc3n2N=C(C(C)(C)C)CS3)cc1` reads 13.1%; that for `Cc1cc(OCC(O)CN(Cc2ccccc2)C(C)(C)C)ccc1[N+](=O)[O-]` (stereo not drawn), 1.54%.
The value for `Clc1ccc(OCCCCCCN2CCOCC2)cc1` was -2.12%; that for `NC(=O)c1cc2nc(-c3cccs3)cc(C(F)(F)F)n2n1` was -3.27%.
Take `Cc1ccc(NC(=O)CN2CCN(Cc3ccc4c(c3)OCO4)CC2)cc1`: the “% Inhibition @ 10 uM” value came out at 1.89%.
The result for `CCN1CCC(C#N)(NC(=O)[C@H](Cc2c(F)cccc2F)NC(=O)c2ccc(-c3cc(C(=O)OC)ccc3Cl)cc2)CC1` reads 2.87%; that for `COc1ccc(N2CCN(S(=O)(=O)c3ccc(Br)cc3)CC2)cc1`, 0.472%.
For `CN1CCN(Cc2cc(F)ccc2F)CC1`, the “% Inhibition @ 10 uM” value is recorded as -0.817%.
The value for `Cc1ccccc1N1CC(C(=O)Nc2ccc3ccccc3c2)CC1=O` (stereo not drawn) was -2.78%; that for `COc1ccc(OC)c(NC(=O)c2c(NC(C)=O)sc3c2CCCCC3)c1` was -2.09%.
The result for `Cc1cc(Br)ccc1NC(=O)CCc1ccccc1` reads 1.91%; that for `CCCCN(CC)CCNC(=O)Cn1nc(C)c2c(C)n(-c3ccccc3)nc2c1=O`, -0.665%; that for `COc1ccc(Cn2c(SCC(=O)NCc3ccco3)nc3ccsc3c2=O)cc1`, 3.21%.
The result for `COC(=O)c1c(NC(=O)C(C)Oc2ccc(Cl)cc2Cl)sc(C)c1C` (stereo not drawn) reads 22.8%; that for `CCCCN(C)CCCNC(=O)CN1N=C(c2ccc(Cl)cc2)CCC1=O`, 0.514%.
In the case of `Cc1nn(C)c(C(=O)Nc2ccc(S(=O)(=O)N3CCCC3)cc2)c1Cl`, the “% Inhibition @ 10 uM” value turned out to be 2.44%.
For `Cc1nn(C)cc1CNC(=O)C1C2CCC(C2)C1C(=O)O` (stereo not drawn), the “% Inhibition @ 10 uM” value is listed as -3.77%.
The value for `COc1cccc(C2CC(c3c(O)cc(C)oc3=O)=NCCS2)c1OC` (stereo not drawn) was -0.0372%; that for `CC(=O)C1C2c3ccccc3OC1(C)N=c1s/c(=C/c3cnn(C)c3)c(=O)n12` (stereo not drawn) was -1.1%; that for `Cc1cc(C)c(S(=O)(=O)Nc2ccc(O)cc2)c(C)c1` was -3.09%.
The result for `Cc1ccccc1-c1nc(CS(=O)CC(=O)NCc2ccc3c(c2)OCO3)c(C)o1` (stereo not drawn) reads -2.85%; that for `COc1cccc(Cn2c(SCc3ccc(C(=O)N4CCOCC4)cc3)nc3ccncc32)c1`, 2.65%.
The value for `N=c1n(CCN2CCOCC2)c2ccccc2n1CC(=O)c1ccc(-c2ccccc2)cc1` was 1.34%; that for `COc1ccc2c(c1)c(C(=O)O)c(C)n2CCc1ccc(OC)c(OC)c1` was -1.47%.
For the molecule `CCN1CCN(Cc2ccc(Cl)cc2Cl)CC1`, the “% Inhibition @ 10 uM” value is reported as -1.92%.
The value for `CC(CCc1ccccc1)NC(=O)C(=O)NCC1COc2ccccc2O1` (stereo not drawn) was -0.178%.
With `CCCC(O)(C(N)=O)c1ccccc1` (stereo not drawn), the “% Inhibition @ 10 uM” value is on record as -2.78%.
The result for `CCc1cccc(C)c1NC(=O)C1CC=CCC1C(=O)O` (stereo not drawn) reads -4.89%; that for `CCCOc1cccc(C2C3=C(CCCC3=O)N(CCC(=O)O)C3=C2C(=O)CCC3)c1`, -3.05%; that for `CC(C)c1ccc(C2CC(=O)Nc3c2ccc2ccccc32)cc1` (stereo not drawn), 0.789%.
As to `COc1cccc(C2CC(C(F)(F)F)n3ncc(C(=O)NC(C)(C)C)c3N2)c1` (stereo not drawn), the “% Inhibition @ 10 uM” value was -11.5%.
The value for `CCc1ccc(S(=O)(=O)c2nnn3c2nc(N2CCC(C)CC2)c2sccc23)cc1` was -5.61%.
For the molecule `CCC(C)NS(=O)(=O)c1ccc(Cc2ccc(S(=O)(=O)NC(C)CC)cc2)cc1` (stereo not drawn), the “% Inhibition @ 10 uM” value is recorded as -4%.
The result for `O=C1CC(c2cccc3ccccc23)Sc2nc(-c3ccc(F)cc3)nn21` (stereo not drawn) reads 0.343%.
The result for `CC(C)C[C@H](NC(=O)OCCCC1CCCC1)C(=O)NCC#N` reads 1.71%; that for `CCc1nnc(S)n1/N=C/c1ccc(O)cc1`, -8.85%; that for `CC1=C(C(=O)Nc2ccccc2C)C(c2ccc(Cl)cc2)C2=C(O)CCCC2=N1` (stereo not drawn), -4.48%.
The value for `c1ccc2[nH]c(C34CC5CC(CC(C5)C3)C4)cc2c1` was -0.178%; that for `N#Cc1cccn1-c1ccccc1F` was -7.57%; that for `Cc1nn(CCC#N)c(O)c1C(C)C` was -1.07%.
`Cc1noc2ncnc(N3CCC(C)CC3)c12`: the “% Inhibition @ 10 uM” value was -0.171%.
Regarding `Cc1nc(O)c(C(=O)/C=C/c2ccc(Cl)cc2Cl)c2c1CCCC2`, the “% Inhibition @ 10 uM” value is given as 2.41%.
